Results as given in PubChem BioAssay AID493208 (National Center for Advancing Translational Sciences (NCATS), 2011).
Out of some 44,000 compounds screened, about 340 (0.77%) were called active. Inconclusive results (about 5%) are left out. Calls follow the shape of the dose curve; as a rule, active = well fitted inhibition curve with a large enough effect; inconclusive = small, poorly fitted or top-dose-only effect; inactive = flat fitted curve, though single readings scatter. Some of the results follow.

Test: Acumen qHTS Assay for Inhibitors of the mTORC1 Signaling Pathway in MEF (Tsc2-/-, p53-/-) Cells: Sytravon;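 also: plate controls were DMSO for no effect and rapamycin for full effect; nearly all actives have a fitted effect of over 50% in size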
Conditions: phospho-rpS6 immunofluorescence/PI, 24 h; series mostly up to 38.3 µM; activity change, negative = inhibition: at the top concentration
Procedure, shortened: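 Immunofluorescence of rpS6 phosphorylation in Tsc2-/-, p53-/- MEFs after 24 h compound exposure, normalized to propidium iodide signal. Activity is expressed as % positive cells, thresholded with 7.5 nM rapamycin.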

| Compound | activity change, negative = inhibition |
| --- | --- |
| CCOc1ccc(NC(=O)c2c(NC(=O)Cc3ccccc3)sc3c2CCC(C)C3)cc1 (configuration not stated) | inactive: -3.61% |
| COc1ccc(OC)c(NC(=O)CN(C)S(=O)(=O)c2ccc3[nH]c4c(c3c2)CCCC4)c1 | inactive: 2.54% |
| CCOc1ccc(C(=O)NCC(c2ccc3c(c2)OCO3)N2CCN(c3ccccc3F)CC2)cc1 (configuration not stated) | inactive: -5.73% |
| COCCCNC(=O)C1CCN(Cc2nc(-c3ccc(OC)c(OC)c3)oc2C)CC1 | inactive: -4.15% |
| COc1ccc(Cn2nnc(C(=O)Nc3cc(OC)ccc3OC)c2N)cc1 | inactive: -10.4% |
| COc1ccc(OC)c(CCNC(=O)c2c(C)nn(-c3ccc(F)cc3)c2-n2cccc2)c1 | inactive: -7.53% |
| CCn1c(=O)cc(SCC(=O)NCCc2cc(OC)ccc2OC)c2ccccc21 | inactive: 15.5% |
| Cc1nnc(N2CCC(C(=O)NC3CCCCC3)CC2)c2nn(-c3ccc(Cl)cc3)c(C)c12 | inactive: -7.33% |
| CCOc1ccc(NC(=O)c2c(NCc3ccc(C)o3)sc3c2CCC(C)C3)cc1 (configuration not stated) | inactive: -4% |
| O=C(CN1C(=O)COc2ccc(Cl)cc21)Nc1ccc(F)cc1 | inactive: -12.3% |
| CCN(C(=O)c1nn(-c2ccc(OC)c(Cl)c2)c(=O)c2c1c1ccccc1n2C)c1cccc(C(F)(F)F)c1 | inactive: 1.63% |
| CCCOc1cccc(C(=O)Nc2cccc3cccnc23)c1 | inactive: 0.352% |
| CC(C)OCCCNC(=O)c1ccc(CSc2nc3cccnc3n2Cc2ccccc2)cc1 | inactive: -12% |
| COc1ccc(-c2nc3ccc(NS(=O)(=O)c4ccc(C)cc4)cc3o2)cc1 | inactive: 2.1% |
| O=C(OCc1cc(=O)n2nc(-c3cccs3)sc2n1)c1ccc(Cl)cc1 | inactive: -11% |
| Cc1ccc(NC(=O)Cn2ncn3c(cc4ccccc43)c2=O)cc1F | inactive: -2.64% |
| CCC1=C(c2ccc(C)cc2)S(=O)(=O)N=C1N1CCC(C(=O)Nc2ccccc2F)CC1 | inactive: -8.3% |
| Cc1ccc(Cn2c(C(=O)NCc3ccccc3Cl)cc3sccc32)cc1 | inactive: -13.5% |
| COC(=O)c1c(SCC(=O)Nc2cc(OC)cc(OC)c2)[nH]c2ccc(C)cc2c1=O | inactive: -10.6% |
| Cc1cccc(NC(=O)CSc2nnc3[nH]c(=O)cc(-c4ccccc4)n23)c1C | inactive: 0.181% |
| CCOc1ccc(CNCc2c(C(=O)O)c(C)n(Cc3cccc(OC)c3)c2C)cc1OC | inactive: 0.48% |
| Cc1cc(CN2CCN(c3ccccc3F)CC2)cs1 | inactive: -0.908% |
| O=C(CCC(=O)N1CC2CCCN2c2ccccc21)NCc1ccc(Cl)cc1 (configuration not stated) | inactive: -8.62% |
| CCC1CCC(C(=O)NC(C(=O)Nc2cccc(OC)c2)C(C)C)CC1 (configuration not stated) | inactive: -0.561% |
| Cc1nc2nc(CNC(=O)OC(C)(C)C)nn2c(C)c1CCC(=O)NCc1ccc(F)cc1 | inactive: -0.815% |

| Compound | activity change, negative = inhibition |
| --- | --- |
| COc1ccc(C2Nc3ccccc3-c3cc(C)nn32)cc1OC (configuration not stated) | inactive: -4.49% |
| COC(=O)c1cc2sc(C)cc2n1Cc1cccc(OC)c1 | inactive: -9.63% |
| CCOC(=O)c1c(-c2ccc(OC)cc2)oc2ccc(OCc3ccccc3C)cc12 | inactive: -1.33% |
| CCOC(=O)c1c(C)[nH]c(C)c1S(=O)(=O)N1CCCC(C(=O)NCc2cccc(C)c2)C1 (configuration not stated) | inactive: 8.48% |
| Cc1cccn2c(=O)c(C(=O)NCc3ccc(F)cc3)c(O)nc12 | inactive: -3.72% |
| O=c1cc(-c2ccccc2)nc(SCc2nc(-c3ccccc3Cl)no2)[nH]1 | inactive: -0.624% |
| CCOc1cc(C(=O)Nc2cc3c(cc2N2CCOCC2)n(C)c(=O)n3C)cc(OCC)c1OCC | inactive: -10.3% |
| Cc1ccccc1CNC(=O)CCCn1c(=O)c2cccn2c2cccnc21 | inactive: -2.5% |
| CNc1ncnc2c1cnn2-c1ccc(C)c(C)c1 | inactive: 21.9% |
| Cc1ccc(N2CC(NC(=O)c3cccs3)CC2=O)cc1C (configuration not stated) | inactive: -5.82% |
| Cc1cccc(NC(=O)c2ccc(-n3cnc4cccnc43)cc2)c1C | inactive: -1.08% |
| Oc1ccccc1-c1nc(/C=C/c2ccccc2Cl)nn1-c1ccccc1 | inactive: -2.35% |
| CCc1ccc(C(=O)c2cn(CC(=O)Nc3ccc4c(c3)OCO4)c3ccc(OC)cc3c2=O)cc1 | inactive: -0.264% |
| Cn1c(C(=O)Nc2cccc(C(F)(F)F)c2)cc2c(=O)n3ccccc3nc21 | inactive: -11.7% |
| CCOc1ccc(NC(=O)C2CCC(CNS(=O)(=O)c3ccc(Br)s3)CC2)cc1 (configuration not stated) | inactive: -18.2% |
| COc1ccc(OC)c(CNC(=O)C(C)n2c(C)c3cnn(-c4ccccc4)c(=O)c3c2C)c1 (configuration not stated) | inactive: -0.069% |
| CC1=C(c2ccc(C)c(C)c2)S(=O)(=O)N=C1N1CCC(C(=O)N2CCC(C)CC2)CC1 | inactive: -7.77% |
| CCOc1cc(/C=C(\C#N)C(=O)NCC2CCCO2)ccc1O (configuration not stated) | inactive: 9.04% |
| Cc1ccccc1OCc1ccc(-c2nc(C#N)c(NCc3cccnc3)o2)o1 | inactive: -13.3% |
| CCOc1ccc(C(=O)c2oc3ccccc3c2NC(=O)Cc2coc3ccc(CC)cc23)cc1 | inactive: -0.515% |
| O=C(Cc1ccc(F)cc1)Nc1nnc2n1CCS2 | inactive: -0.534% |
| COc1cccc(C(=O)Nc2c(C(=O)N3CCN(c4ccc(F)cc4)CC3)oc3ccccc23)c1 | inactive: -2.7% |
| CCc1ccc(CNC(=O)c2c(C)oc3ncnc(N4CCOCC4)c23)cc1 | inactive: 1.4% |
| COc1cc2ccccc2cc1C(=O)Nc1ccc2oc(-c3ccc(F)cc3Cl)nc2c1 | inactive: 4.42% |
| CCc1cccc(-n2c(=O)c3cccnc3n2CC(=O)Nc2ccc(F)c(C)c2)c1 | inactive: 5.17% |

| Compound | activity change, negative = inhibition |
| --- | --- |
| CCc1ccc2occ(CC(=O)Nc3ccccc3C(F)(F)F)c2c1 | inactive: 2.32% |
| CC(C)c1ccc(Nc2cc(C(=O)NC3CCCCC3)c3ccccc3n2)cc1 | inactive: -4.92% |
| COc1ccccc1NC(=O)CSc1nc(-c2ccc(C(C)(C)C)cc2)c(C#N)c(=O)[nH]1 | inactive: -1.35% |
| O=C(NCCn1ccc2ccccc21)c1ccc(Cl)cc1 | inactive: -17% |
| CCc1ccccc1OCC(=O)Nc1ccc(S(=O)(=O)Nc2nc(C)cc(C)n2)cc1 | inactive: -0.91% |
| CCOc1ccccc1-n1nnc(-c2nsc(NC(=O)c3ccc(C)cc3)n2)c1C | inactive: -13.2% |
| CCOC(=O)c1c(-c2ccc(C)cc2)csc1NC(=O)c1cc(=O)c2ccc(C)cc2o1 | inactive: -13.6% |
| CSc1cccc(Nc2cc(C(=O)NCCCN(C)c3ccccc3)c3ccccc3n2)c1 | inactive: -9.67% |
| COc1ccc(NC(=O)Cn2c(=O)n(Cc3nc(-c4ccccc4)no3)c(=O)c3ccccc32)cc1Cl | inactive: -2.11% |
| COc1ccc(/C=C/C(=O)Nc2nc3n(n2)C(c2ccc(F)cc2)C=C(c2ccccc2)N3)cc1 (configuration not stated) | inactive: 2.92% |
| CC(=O)N1CCc2cc(S(=O)(=O)NC(C(=O)Nc3ccc(C)cc3C)C(C)C)ccc21 (configuration not stated) | inactive: -23.8% |
| COc1ccc(NC(=O)C2CCCN(S(=O)(=O)c3ccc(Br)s3)C2)cc1 (configuration not stated) | inactive: -6.65% |
| CCOC(=O)c1c(NC(=O)c2cc(-c3cccc(OC)c3)on2)sc2c1CCCC2 | inactive: 1.38% |
| COc1ccc(CC(=O)NCC(c2cccs2)S(=O)(=O)c2ccc(C)cc2)cc1 (configuration not stated) | inactive: -15.9% |
| COc1cccc(CNC(=O)Cc2c(C(=O)O)c(C)cn2C)c1 | inactive: -9.66% |
| CC(C)c1ccc(NC(=O)CN2C(=O)COc3ccc(S(=O)(=O)N4CCCCCC4)cc32)cc1 | inactive: -29.1% |
| CCc1ccc(NC(=O)Cn2c(=O)n(Cc3ccco3)c(=O)c3oc4ccccc4c32)cc1 | inactive: 0.0604% |
| O=C(NCc1cccs1)c1ccc(CSc2nc3cccnc3n2Cc2ccccc2F)cc1 | inactive: -0.0611% |
| Cc1cc(C)c(NC(=O)Cn2cnc3c(oc4ccccc43)c2=O)c(C)c1 | inactive: 11.9% |
| Cc1oc(-c2ccccc2Cl)nc1CSc1nc2ncccc2[nH]1 | inactive: -0.922% |
| COc1ccccc1N1CCN(c2ncnc3onc(-c4cccc(Cl)c4)c23)CC1 | inactive: -0.552% |
| O=C(NCc1cccc(Cl)c1)c1ccc2nc(N3CCCCC3)sc2c1 | inactive: -3.61% |
| CCOC(=O)c1c(C)n(-c2ccccc2)c2ccc(OC(=O)c3cccc(OC)c3OC)cc12 | inactive: 3.4% |
| CCc1cccc(N2C(=O)CSC23C(=O)Nc2ccccc23)c1 (configuration not stated) | inactive: 0.56% |
| CCN(CC)C(=O)c1ccc(Nc2nnc(-c3ccc(C)c(S(=O)(=O)NC)c3)c3ccccc23)cc1 | inactive: 12.8% |

| Compound | activity change, negative = inhibition |
| --- | --- |
| COc1ccc(S(=O)(=O)Nc2c(C)nc3nc(C)[nH]n3c2=O)cc1 | inactive: -17.7% |
| CCCN(C(=O)c1cc2c(=O)[nH]c3ccc(C)cc3c2s1)c1ccc(CC)cc1 | inactive: -7.24% |
| CC1CCN(C(=O)c2cc(-c3ccc(Br)cc3)on2)CC1 | inactive: -3.99% |
| CCOC(=O)C1CCCN(C(=O)c2nn(-c3ccc(C)cc3)c(=O)n(C)c2=O)C1 (configuration not stated) | inactive: 0.115% |
| CCOc1ccc(CNS(=O)(=O)c2ccc3c(c2)CCCN3C(C)=O)cc1OC | inactive: -28.9% |
| COc1ccc(C2=C(C)C(=O)N(Cc3ccc(C(=O)NCc4cccc(C)c4)cc3)S2(=O)=O)cc1 | inactive: -12.1% |
| COc1ccc2c(c1)c(N1CCCC1=O)c(C(=O)Nc1ccccc1C(F)(F)F)n2C | inactive: -1.04% |
| COc1ccc(-c2noc(N3CCC(C(=O)N4CCN(c5cccc(C)c5C)CC4)CC3)n2)cc1 | inactive: 0.547% |
| COc1ccc(C2=NC(c3ccncc3)=Nc3ccc(OC)cc3N2)cc1 | inactive: 1.29% |
| CCOc1ccc(NC(=O)CCNS(=O)(=O)c2cccc3nonc23)cc1 | inactive: 4.41% |
| O=C(COc1ccc(F)cc1)Nc1ccc2nc(SCC(=O)N3CCOCC3)sc2c1 | inactive: -11.2% |
| COc1ccc(-c2noc(COc3cc(C)ccc3C)n2)cc1OC | inactive: -13% |
| O=C1[C@@H]2CSC(c3ccc(Cl)cc3)N2C(=O)N1c1ccccc1 (some centres not stated) | inactive: -9.23% |
| CC(C)c1ccc(N2C(=O)CSC23C(=O)N(C)c2ccccc23)cc1 (configuration not stated) | inactive: -2.97% |
| O=C1CCCc2cc(S(=O)(=O)N3CCCC(C(=O)NCc4ccccc4)C3)ccc2N1 (configuration not stated) | inactive: -2.84% |
| CC(=O)c1cccc(NC(=O)c2nc(-c3ccccc3)n(-c3ccccc3)n2)c1 | inactive: 3.77% |
| Cc1cc(C)c(NC(=O)CN(C)S(=O)(=O)c2ccc3c(c2)CCC(=O)N3)c(C)c1 | inactive: -2.23% |
| COc1cc2c(cc1OC)n(Cc1cccc(C(F)(F)F)c1)c(=O)n1nc(-c3ccccc3)nc21 | inactive: 1.02% |
| COc1cccc(NC(=O)CCNS(=O)(=O)c2ccc3c(c2)oc(=O)n3C)c1 | inactive: -0.982% |
| COc1ccc(CNC(=O)c2cc3c(=O)n(Cc4ccco4)ccc3nc2C)cc1 | inactive: -7.93% |
| Cc1cc(C)c(NC(=O)CCS(=O)(=O)c2cc3c(cc2Cl)NC(=O)CO3)c(C)c1 | inactive: 0.427% |
| CCOc1ccc(NS(=O)(=O)c2cc3c(cc2Cl)NC(=O)CO3)cc1 | inactive: -14% |
